# According to PubChem BioAssay (Tox21):
# Where “and” joins values, the source holds several entries; their conditions need not be identical. Equal entries are not always repeated. The inconclusive results got no clear call from the source; some entries with a clear call stand among them for comparison. For some of these results: Potencies of inconclusive entries are doubtful fits and often do not repeat. Some structures have more than one record in an assay (separate samples or runs), and their calls can disagree. Calls of active or inactive are those of the source. Unless noted, calls come from the whole dose curve; as a rule, active = well fitted curve in the direction sought with a large enough effect in the repeat runs; inconclusive = weak or mixed curves; inactive = no such curve, though single readings can be large; an effect the other way counts as inactive or inconclusive.
# What was measured:
# [1] = qHTS assay for small molecule agonists of the p53 signaling pathway (AID 651631; calls by dose curve; note: nearly all actives have a fitted effect of over 15% in size; for activation: % is set by controls: 0 for no effect and ±100 for the full control effect); settings: HCT-116 p53RE-bla reporter, beta-lactamase FRET ratio, 16 h; activation: at 73.3 µM (top of the series) unless noted
# In short: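 Readout was fluorescence from the LiveBLAzer FRET substrate, applied for 2 h at room temperature after 16 h compound exposure at 37 °C. Cells were the p53RE-bla HCT-116 line, with beta-lactamase driven by p53 response elements.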
# [2] = qHTS assay for small molecules that induce genotoxicity in human embryonic kidney cells expressing luciferase-tagged ATAD5 (AID 651632); settings: HEK293T ATAD5-luciferase induction, 16 h; series mostly up to 83.3 µM; note: nearly all actives have a fitted effect of over 15% in size; for activation: % is set by controls: 0 for no effect and ±100 for the full control effect
# In short: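 Genotoxicity read-out via ATAD5-luciferase: HEK293T cells, 16 hr compound incubation at 37C, Amplite detection.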
# [3] = qHTS assay for small molecules that induce genotoxicity in human embryonic kidney cells expressing luciferase-tagged ATAD5 - cell viability (AID 651634; calls by dose curve; note: nearly all actives have a fitted effect of over 25% in size); settings: HEK293T ATAD5-luc cells viability, CellTiter-Fluor, 15.5 h; series mostly up to 83.3 µM
# In short: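 Live-cell protease activity (CellTiter-Fluor, fluorescence) indicates viability. HEK293T cells with luciferase-tagged ATAD5; 15.5 hr compound treatment at 37C.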
# [4] = qHTS assay for small molecule disruptors of the mitochondrial membrane potential (AID 720635); settings: HepG2 mitochondrial membrane potential, Mito-MPS dye ratio; ratio activity, negative = MMP loss: at 83.2 µM (top of the series) unless noted; for ratio activity, negative = MMP loss: % is set by controls: 0 for no effect and ±100 for the full control effect
# In short: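 HepG2 cells exposed to compound 1 hr at 37C, then Mito-MPS dye 30 min. Ratio read of aggregate (540/590 nm) versus monomer (490/535 nm) fluorescence.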
# [5] = molecular target: Glucocorticoid receptor (Homo sapiens) (UniProt P04150); assay: qHTS assay to identify small molecule agonists of the glucocorticoid receptor (GR) signaling pathway (AID 720691; active = well fitted activation curve with a large enough effect in the signal ratio in the repeat runs, not every such curve was filed as active; inconclusive = weak or mixed curves, or effect the other way; inactive = no such curve, though single readings can be large or run the other way; the % refers to the signal ratio); settings: GR-bla HeLa, beta-lactamase reporter ratio, 18 h; activation: at 62.4 µM (top of the series) unless noted
# In short: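 Beta-lactamase reporter activity, read as fluorescence intensity, was measured in GR-bla HeLa cells exposed to compounds for 18 h at 37 C and then loaded with LiveBLAzer B/G FRET substrate for 2 h at room temperature.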
# [6] = molecular target: Glucocorticoid receptor (Homo sapiens) (UniProt P04150); assay: qHTS assay to identify small molecule antagonists of the glucocorticoid receptor (GR) signaling pathway (AID 720692; active = well fitted inhibition curve with a large enough effect in the signal ratio in the repeat runs, not every such curve was filed as active; inconclusive = weak or mixed curves, or effect the other way; inactive = no such curve, though single readings can be large or run the other way; the % refers to the signal ratio; for activity change, negative = inhibition: % is set by controls: 0 for no effect and ±100 for the full control effect); settings: GR-bla HeLa, beta-lactamase FRET ratio, dexamethasone-stimulated, 18 h; activity change, negative = inhibition: at 58.5 µM (top of the series) unless noted
# In short: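 Fluorescence from cleaved LiveBLAzer B/G FRET substrate reports GRE-driven beta-lactamase in HeLa cells; compounds are tested against 5 nM dexamethasone (final) over 18 h at 37 C, substrate incubation 2 h at room temperature.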
# [7] = qHTS assay for identifying genotoxic compounds that show differential cytotoxicity against isogenic chicken DT40 cell lines with known DNA damage response pathways - Rad54/Ku70 mutant cell line (AID 743015); settings: DT40 Rad54/Ku70 mutant viability, CellTiter-Glo, 40 h; activity change, negative = cytotoxicity: at 66.8 µM (top of the series) unless noted; note: nearly all actives have a fitted effect of over 60% in size
# [8] = qHTS assay for small molecule disruptors of the mitochondrial membrane potential - cell viability (AID 720634; calls by dose curve; note: nearly all actives have a fitted effect of over 20% in size); settings: HepG2 viability, ATP luminescence (CellTiter-Glo), 1 h; series mostly up to 83.2 µM
# In short: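 Human hepatoma HepG2 cells were treated for 1 hr with test chemicals, then given m-MPI dye and CellTiter-Glo. Cell viability reflects luminescence proportional to cellular ATP.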
# [9] = qHTS assay to identify small molecule antagonists of the glucocorticoid receptor (GR) signaling pathway - cell viability counter screen (AID 720693); settings: GR-bla HeLa viability, CellTiter-Glo luminescence, 18 h, with 5 nM dexamethasone present; viability change, negative = cytotoxic: at 58.5 µM (top of the series) unless noted; note: nearly all actives have a fitted effect of over 55% in size
# [10] = qHTS assay to test for compound auto fluorescence at 460 nm (blue) in HepG2 cell free culture (AID 720685); settings: Cell-free culture medium, blue autofluorescence 405/460 nm; series mostly up to 91.3 µM
# In short: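 Compound (23 nL) or DMSO pinned into cell-free MEM with 10% FBS; blue fluorescence read at 405/460 nm excitation/emission, expressed as auto-fluorescence equivalency to triamterene.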
# [11] = qHTS assay for identifying genotoxic compounds that show differential cytotoxicity against isogenic chicken DT40 cell lines with known DNA damage response pathways - wild type cell line (AID 743012); settings: DT40 wild type chicken cells viability, CellTiter-Glo, 40 h; activity change, negative = cytotoxicity: at 68.4 µM (top of the series) unless noted; note: nearly all actives have a fitted effect of over 60% in size
# In short: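 Quantitative HTS on parental DT40 cells: 40 h compound treatment at 37 C/5% CO2, with viability then determined by CellTiter-Glo luminescence. Values serve as the DNA repair-proficient reference for differential cytotoxicity.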
# [12] = qHTS assay for identifying genotoxic compounds that show differential cytotoxicity against isogenic chicken DT40 cell lines with known DNA damage response pathways - Rev3 mutant cell line (AID 743014); settings: chicken DT40 Rev3-/- viability, CellTiter-Glo, 40 h; activity, negative = cytotoxicity: at 68.4 µM (top of the series) unless noted; note: nearly all actives have a fitted effect of over 55% in size
# [13] = qHTS assay for small molecule agonists of the p53 signaling pathway - cell viability (AID 651633; calls by dose curve; note: nearly all actives have a fitted effect of over 30% in size); settings: p53RE-bla HCT-116 viability, ATP luminescence, 16 h; series mostly up to 83.3 µM
# In short: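 p53RE-bla cells were treated with compound for 16 hours at 37 C. Cytotoxicity was then measured as CellTiter-Glo luminescence after 30 min at room temperature.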
# Potency is the fitted concentration of half-maximal effect; tags give direction and shape of the fitted curve or compound fluorescence and quenching.
# Chain of UniProt P04150 (P04150 whole entry, looked up): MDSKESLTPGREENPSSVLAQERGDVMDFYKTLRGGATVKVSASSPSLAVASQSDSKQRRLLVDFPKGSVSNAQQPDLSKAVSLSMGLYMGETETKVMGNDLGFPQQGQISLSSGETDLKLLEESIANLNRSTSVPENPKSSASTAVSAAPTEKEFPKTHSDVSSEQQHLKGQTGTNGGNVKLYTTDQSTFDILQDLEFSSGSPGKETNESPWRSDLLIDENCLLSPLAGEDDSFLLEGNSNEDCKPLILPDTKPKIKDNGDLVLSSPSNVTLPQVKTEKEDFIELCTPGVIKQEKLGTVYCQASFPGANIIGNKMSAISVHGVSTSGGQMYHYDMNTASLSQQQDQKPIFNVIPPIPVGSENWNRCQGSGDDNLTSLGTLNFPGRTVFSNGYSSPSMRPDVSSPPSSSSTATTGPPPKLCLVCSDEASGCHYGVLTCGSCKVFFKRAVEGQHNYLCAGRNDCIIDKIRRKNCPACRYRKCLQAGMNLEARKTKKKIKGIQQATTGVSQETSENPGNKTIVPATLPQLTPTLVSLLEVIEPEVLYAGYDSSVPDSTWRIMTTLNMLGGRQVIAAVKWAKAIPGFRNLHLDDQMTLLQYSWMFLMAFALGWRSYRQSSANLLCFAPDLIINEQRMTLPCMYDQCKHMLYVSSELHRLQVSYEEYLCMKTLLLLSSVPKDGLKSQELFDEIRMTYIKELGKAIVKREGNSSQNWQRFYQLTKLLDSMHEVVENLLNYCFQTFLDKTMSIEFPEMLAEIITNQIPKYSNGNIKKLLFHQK
smiles,measurement,setting,value
[Cl][Sb]([Cl])[Cl],Potency,[1],active: 34.4 µM
same,Potency,[2],"inconclusive: 13.7 µM [activator, single point]"
same,Potency,[3],"inconclusive: 7.7 µM [falling, partial curve, poor fit]"
same,Potency,[4],"inconclusive: 27.3 µM [inhibitor, partial curve]"
same,Potency,[5],"inconclusive: 24.5 µM [activator, partial curve]"
same,"activity change, negative = inhibition",[6],inconclusive: 25.8%
same,Potency,[7],"inconclusive: 68.6 µM [cytotoxic, single point]"
O=C1C(=O)c2cccc3cccc1c23,Potency,[1],"inconclusive: 2.43 µM [activator, single point]"
same,Potency,[2],"inconclusive: 27.3 µM [activator, single point]"
same,Potency,[8],"inconclusive: 68.5 µM [cytotoxic, single point]"
same,Potency,[4],active: 54.4 µM
same,Potency,[6],"inconclusive: 6.16 µM [falling, partial curve, poor fit]"
same,Potency,[9],"inconclusive: 24.5 µM [cytotoxic, partial curve]"
O=[N+]([O-])c1ccc(CCl)cc1,Potency,[1],inconclusive: 26.9 µM [activator]
same,Potency,[2],"inconclusive: 75.7 µM [activator, partial curve, poor fit]"
Nc1cc(Cl)cc(Cl)c1,Potency,[1],inactive
O=C/C=C/c1ccco1,Potency,[1],inactive
N#Cc1nn(-c2c(Cl)cc(C(F)(F)F)cc2Cl)c(N)c1S(=O)C(F)(F)F (stereo not drawn),Potency,[1],"inconclusive: 26.6 µM [activator, partial curve] and inconclusive: 13.8 µM [activator, full curve, poor fit]"
same,Potency,[2],inactive
same,Potency,[8],active: 10.6 µM and active: 1.54 µM
O=c1oc2ccccc2c(O)c1Cc1c(O)c2ccccc2oc1=O,Potency,[1],active: 0.639 µM
same,Potency,[2],inactive
O=C(O)CCCOc1ccc(Cl)cc1Cl,Potency,[1],"inconclusive: 27.3 µM [activator, single point]"
same,activation,[1],inconclusive: 2%
same,Potency,[4],"inconclusive: 68.6 µM [fluorescent] and inconclusive: 1.97 µM [inhibitor, full curve, poor fit]"
same,Potency,[10],"inconclusive: 56.2 µM [fluorescent, single point]"
OCCCBr,Potency,[1],"inconclusive: 27.3 µM [cytotoxic, partial curve, poor fit]"
same,Potency,[2],inactive
same,"ratio activity, negative = MMP loss",[4],inconclusive: 21.9%
O=C(CCl)c1ccccc1,Potency,[1],inconclusive: 24.3 µM [activator]
same,activation,[1],inconclusive: 9.42% [at 95.1 µM]
same,Potency,[2],"inconclusive: 62 µM [activator, partial curve, poor fit]"
same,Potency,[3],"inconclusive: 61.1 µM [falling, single point]"
same,Potency,[8],"inconclusive: 68.6 µM [cytotoxic, single point]"
same,Potency,[4],"inconclusive: 61.1 µM [activator, partial curve]"
same,Potency,[6],active: 54.9 µM
same,Potency,[9],"inconclusive: 54.9 µM [cytotoxic, single point]"
same,Potency,[11],inactive and active: 68.6 µM
same,Potency,[12],"inconclusive: 69.6 µM [cytotoxic, single point] and active: 54.5 µM"
same,Potency,[7],"inconclusive: 69.6 µM [cytotoxic, single point]"
O=S(=O)(c1ccc(Cl)cc1)c1cc(Cl)c(Cl)cc1Cl,Potency,[1],inconclusive: 54.5 µM [activator]
same,activation,[1],inconclusive: 10.5%
same,Potency,[4],active: 12.2 µM and active: 13.7 µM
same,Potency,[11],inactive and active: 48.6 µM
CCCCNC(=O)OCC#CI,Potency,[1],active: 68.6 µM
same,Potency,[2],"inconclusive: 76.6 µM [activator, partial curve, poor fit]"
same,Potency,[8],active: 8.59 µM and active: 27.3 µM
same,Potency,[4],active: 4.31 µM and active: 6.86 µM
same,Potency,[6],"inconclusive: 61.4 µM [inhibitor, single point] and inconclusive: 61.6 µM [inhibitor, single point]"
same,Potency,[9],"inconclusive: 61.4 µM [cytotoxic, single point] and inconclusive: 61.6 µM [cytotoxic, single point]"
same,Potency,[12],active: 1.36 µM and active: 1.22 µM
c1coc(-c2nc3ccccc3[nH]2)c1,Potency,[1],inactive
same,Potency,[2],"inconclusive: 24.3 µM [activator, partial curve, poor fit]"
same,Potency,[13],"inconclusive: 27.3 µM [cytotoxic, single point]"
same,Potency,[8],"inconclusive: 34.4 µM [cytotoxic, partial curve, poor fit]"
same,Potency,[4],inconclusive: 27.3 µM [partial curve]
same,Potency,[6],inactive
same,Potency,[11],active: 54.5 µM
